Measured values: PMC2695464, “On the mechanism of autoinhibition of the RhoA-specific nucleotide exchange factor PDZRhoGEF” (BMC Structural Biology, 2009)
Substitutions are numbered along the chain they refer to. In names and notes the source's numbering stands.

Tests used:
Assay in all cases: NMR titration; 1H-15N TROSY-HSQC (600 MHz) of isotope-labelled RhoA in complex with unlabelled PRG fragment; 0.2 to 0.3 mM protein, 200 mM MOPS/TRIS pH 7.5, 1 mM DTT, 25°C
Conditions in all cases: both partners purified
[1] = molecular target: T1, PRG^4R: PRG^672–1081 with D706R, E708R, E710R, D712R (human, UniProt O15085 672-1081, D706R | E708R | E710R | D712R)
T1 construct: also called quadruple charge reversal mutant; source: E. coli BL21 (DE3) RIPL, purified (glutathione-Sepharose, rTEV cleavage, Ni-NTA); not shown: GST, N-terminal, cleaved; His8, C-terminal, kept
T1 sequence (looked up): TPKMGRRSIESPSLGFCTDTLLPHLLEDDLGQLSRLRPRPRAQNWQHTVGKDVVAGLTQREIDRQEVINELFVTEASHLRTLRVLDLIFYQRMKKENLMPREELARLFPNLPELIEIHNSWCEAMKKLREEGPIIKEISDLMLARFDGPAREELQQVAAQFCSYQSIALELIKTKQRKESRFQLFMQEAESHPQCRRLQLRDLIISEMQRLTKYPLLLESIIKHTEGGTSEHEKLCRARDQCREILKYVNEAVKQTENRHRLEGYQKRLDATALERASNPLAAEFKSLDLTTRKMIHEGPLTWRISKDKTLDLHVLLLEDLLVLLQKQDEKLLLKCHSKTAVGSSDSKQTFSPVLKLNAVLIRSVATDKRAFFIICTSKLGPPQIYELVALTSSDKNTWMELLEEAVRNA

[2] = molecular target: T2, PDZRhoGEF fragment PRG^672–1081 (human, UniProt O15085 672-1081)
T2 construct: The His8 tag is called non-cleavable; source: E. coli BL21 (DE3) RIPL, purified (glutathione-Sepharose, rTEV cleavage, Ni-NTA); not shown: GST, N-terminal, cleaved; His8, C-terminal, kept
T2 sequence (looked up): T1 sequence (looked up) with R35D, R37E, R39E, R41D

[3] = molecular target: T3, PDZRhoGEF DH-PH tandem (PRG^712–1081) (human, UniProt O15085 712-1081)
T3 construct: full length is 1-1522; The His8 tag is called non-cleavable; Unlabelled in the spectra of labelled RhoA; also called isolated DH-PH tandem; source: E. coli BL21 (DE3) RIPL, purified (glutathione-Sepharose, rTEV cleavage, Ni-NTA); not shown: GST, N-terminal, cleaved; His8, C-terminal, kept
T3 sequence (looked up): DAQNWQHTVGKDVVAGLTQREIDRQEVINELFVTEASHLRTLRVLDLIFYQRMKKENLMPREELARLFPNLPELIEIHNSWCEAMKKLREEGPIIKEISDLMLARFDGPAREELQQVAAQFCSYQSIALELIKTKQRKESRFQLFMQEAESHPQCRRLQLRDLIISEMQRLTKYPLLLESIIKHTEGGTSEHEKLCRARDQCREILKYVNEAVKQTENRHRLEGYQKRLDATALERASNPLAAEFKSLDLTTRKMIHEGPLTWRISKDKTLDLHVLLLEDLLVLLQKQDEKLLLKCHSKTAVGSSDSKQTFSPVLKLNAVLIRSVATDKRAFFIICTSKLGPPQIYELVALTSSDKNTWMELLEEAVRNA

Measured: binding result

B1: human RhoA^F25N ([…]) (domain or fragment)
chain: not shown
notes: RhoA, human, […], with the F25N mutation; 2H,15N- or 15N-labelled for the NMR spectra of the complexes; GDP-preloaded in the exchange assay; also called recombinant RhoA ([…]); source: expression and purification as described previously [45]
binds: all assays above
